Here are results for 54 compounds from article PMC4336329 (PLoS ONE, 2015).

In all, about 310,000 compounds went through this assay and about 2,200 (0.71%) showed an effect of 50% or more. Effects have a minus sign here. This is one part of the list.

The target of this assay is human ether-à-go-go-related gene (hERG) potassium channel (human, UniProt Q12809). In words: primary screen, population patch clamp on CHO cells stably expressing hERG.
Chain of human ether-à-go-go-related gene (hERG) potassium channel (Q12809 whole entry, looked up): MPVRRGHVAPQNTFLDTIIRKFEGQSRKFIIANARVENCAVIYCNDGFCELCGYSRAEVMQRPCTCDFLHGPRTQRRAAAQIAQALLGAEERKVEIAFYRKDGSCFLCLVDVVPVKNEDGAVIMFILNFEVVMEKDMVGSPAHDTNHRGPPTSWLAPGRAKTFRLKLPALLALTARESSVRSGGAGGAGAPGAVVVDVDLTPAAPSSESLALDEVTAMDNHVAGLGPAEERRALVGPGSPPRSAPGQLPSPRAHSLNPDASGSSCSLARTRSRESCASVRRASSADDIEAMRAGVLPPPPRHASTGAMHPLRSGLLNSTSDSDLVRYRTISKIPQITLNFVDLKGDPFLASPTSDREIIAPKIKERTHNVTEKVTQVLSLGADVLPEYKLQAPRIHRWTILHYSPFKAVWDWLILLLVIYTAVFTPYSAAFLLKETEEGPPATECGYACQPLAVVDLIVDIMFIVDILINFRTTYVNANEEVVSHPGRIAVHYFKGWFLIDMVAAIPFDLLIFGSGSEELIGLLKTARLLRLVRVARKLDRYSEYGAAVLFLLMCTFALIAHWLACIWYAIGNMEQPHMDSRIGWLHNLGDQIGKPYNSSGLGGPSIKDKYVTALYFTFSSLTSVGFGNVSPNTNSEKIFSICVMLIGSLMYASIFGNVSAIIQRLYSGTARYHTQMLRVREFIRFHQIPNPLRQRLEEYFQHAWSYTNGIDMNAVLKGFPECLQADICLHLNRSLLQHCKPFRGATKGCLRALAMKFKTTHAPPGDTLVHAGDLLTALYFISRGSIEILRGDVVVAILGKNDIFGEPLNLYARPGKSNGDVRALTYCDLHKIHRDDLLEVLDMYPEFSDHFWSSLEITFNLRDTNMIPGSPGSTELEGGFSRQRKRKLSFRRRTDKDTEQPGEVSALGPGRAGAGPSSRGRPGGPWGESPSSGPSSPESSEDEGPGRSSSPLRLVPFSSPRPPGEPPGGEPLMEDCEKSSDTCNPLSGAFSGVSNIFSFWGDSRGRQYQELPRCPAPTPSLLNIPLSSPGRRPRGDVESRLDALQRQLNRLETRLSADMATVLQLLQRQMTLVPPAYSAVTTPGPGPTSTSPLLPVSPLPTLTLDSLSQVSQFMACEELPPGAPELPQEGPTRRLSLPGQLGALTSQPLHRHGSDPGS
As to `O=C(NCCN1C(=O)S/C(=C\c2ccc(F)cc2)C1=O)C1CCN(S(=O)(=O)c2cccs2)CC1`, the “hERG current change (%, negative = inhibition) at 1uM” value is 7.66%.
On to `Cc1ccc(Cn2c(-n3nc(C)cc3C)nc3c2c(=O)[nH]c(=O)n3C)cc1`, for which the “hERG current change (%, negative = inhibition) at 1uM” value is -0.423%.
On to `CN(C(=O)C(=O)c1cn(CC(=O)N2CCCC2)c2ccccc12)C1CCCCC1`, for which the “hERG current change (%, negative = inhibition) at 1uM” value came to 5.88%.
The result for `Cn1nnc(NC(=O)c2ccc([N+](=O)[O-])cc2Cl)n1` reads 13%; that for `Cc1ccc(/C=C2/C(=O)N(c3ccccc3)C(=S)N2C)o1`, 4.09%.
The same measure for `CCCCn1c(N)c(N(CC(C)C)C(=O)C2CCN(S(=O)(=O)c3ccc(C)cc3)CC2)c(=O)[nH]c1=O`: 11.2%; for `C[C@@H](C(=O)NCCc1c[nH]c2ccccc12)[C@@H]1C[C@@]1(C)[C@@H](NC(=O)OCc1ccccc1)c1ccccc1`: 13.1%.
The result for `CCOc1ccc(CNC(=O)C2CCN(S(=O)(=O)CC)CC2)cc1OC` reads 9.45%; that for `COc1cc([N+](=O)[O-])cc2sc(NC(=O)C(C)(C)C)nc12`, 9.58%.
As for `COc1cccc(CNc2ccc3c(c2)ncn3C)c1OC`, the “hERG current change (%, negative = inhibition) at 1uM” value turned out to be 18.4%.
The same measure for `CCOc1cccc(=[NH+]C2CCCCC2)c2c(C)n(C)c(C)c12.[O-][Cl+3]([O-])([O-])[O-]`: -42.3%; for `COc1ccc(/C=C2\CCn3c2nc2cc(C(=O)O)ccc2c3=O)cc1OC`: 8.01%; for `CN(CCC1CCOCC1)C(=O)CC1C(=O)NCCN1Cc1ccccc1F` (stereo not drawn): 3.78%.
The result for `C=CCn1c(SCC(=O)Nc2cc(C)c(Cl)cc2OC)nnc1-c1ccco1` reads -7.62%; that for `CC(C)c1cc(C(=O)NNC(=S)NC2CCCCC2)cs1`, 2.56%; that for `CCc1ccc(-c2nc(CN3CCCC(C(=O)NCCc4ccc(OC)c(OC)c4)C3)c(C)o2)cc1` (stereo not drawn), -3.23%.
On to `CCn1c(CNc2ccc(C)cc2)nnc1SCC(N)=O`, for which the “hERG current change (%, negative = inhibition) at 1uM” value came to 20%.
The result for `Cc1ccc(-n2ncc3c2CC(C)(C)CC3NC(=O)CCc2cnn(C)c2)cc1` (stereo not drawn) reads -16.5%; that for `O=C(O)/C=C/C(=O)NNC(=O)c1cc(-c2ccccc2)n[nH]1`, 14.4%.
The same measure for `CON/C=C(\C=Nc1ccc(F)cc1)c1ncc(C(F)(F)F)cc1Cl`: 9.23%; for `COC(=O)c1cn(CC(=O)N2C(C)CCCC2C)c2ccccc12` (stereo not drawn): 13.9%; for `O=C(CSc1nc2[nH]ncc2c(=O)[nH]1)NCc1ccccc1Cl`: 7.42%.
The same measure for `Cc1ccc(-n2c(O)c(C=NC3CCS(=O)(=O)C3)c3ccccc3c2=O)cc1` (stereo not drawn): 9.2%; for `C(=N\NC1=NCCCCC1)/c1c[nH]c2ccccc12.Cl`: 11.4%; for `CC(=O)N(C)c1ccc(NS(=O)(=O)c2cccc3nsnc23)cc1`: 14.7%.
Consider `CCOC(=O)COc1ccc2ccccc2c1/C=C/[N+](=O)[O-]`, for which the “hERG current change (%, negative = inhibition) at 1uM” value is 8.95%.
`O=C(NCC(c1cccnc1)N1CCN(c2ccc(F)cc2)CC1)c1ccccc1` (stereo not drawn): the “hERG current change (%, negative = inhibition) at 1uM” value amounted to 3.43%.
The same measure for `Cc1ccc(OCC(=O)Nc2ccc(NC(=O)c3ccccc3)cc2)cc1C`: 17.2%; for `COc1ccc(NC(=O)N2CCC(Cc3ccccc3)CC2)cc1`: 6.74%; for `O=c1[nH]c(=S)n(-c2ccccc2)c(O)c1C=NCCN1CCNCC1`: 14.5%.
Turning to `O=C(CSc1nnnn1-c1ccc(F)cc1)NCc1cccs1`, the “hERG current change (%, negative = inhibition) at 1uM” value turned out to be 11.9%.
The result for `CC(=O)N1CCN(c2ccc(NC(=O)c3ccc(OCc4ccccc4)cc3)cc2)CC1` reads -5.28%; that for `CCC1(C)Cc2nc3sc(C(=O)O)c(N)c3cc2CO1` (stereo not drawn), 7.64%.
The result for `CCOC(=O)c1cnc2c(Cl)cc(Cl)cc2c1NCCOCCO` reads 2.33%.
The result for `CSC[C@H](NC(=O)COc1cc2c(c3oc(=O)cc(C)c13)CCC(C)(C)O2)C(=O)O` reads 14.3%; that for `Cc1ccc(C(C)C)c(OCCN2C(=O)NC(C)(C)C2=O)c1`, 1.55%.
Take `COc1ccc(Cl)cc1NC(=O)Cn1c(C)csc1=O`: the “hERG current change (%, negative = inhibition) at 1uM” value was determined as 10.2%.
As to `COc1cccc(/C=N/n2c(=S)n(C)c3cc(C)c(C)cc32)c1OC`, the “hERG current change (%, negative = inhibition) at 1uM” value is reported as 4%.
In the case of `Cc1ccc(NC(=O)N2CCCC2C(=O)NCC2CCCO2)cc1` (stereo not drawn), the “hERG current change (%, negative = inhibition) at 1uM” value turned out to be 9.17%.
With `O=C(Cn1c(C(=O)N2CCN(C3CCCC3)CC2)cc2sccc21)c1ccccc1`, the “hERG current change (%, negative = inhibition) at 1uM” value is on record as -51%.
In the case of `NC(=O)N/N=C/c1c(F)cccc1F`, the “hERG current change (%, negative = inhibition) at 1uM” value came to 7.88%.
The result for `CCOC(=O)C1CCN(C(=O)/C=C/c2cccs2)CC1` reads 6.2%; that for `COc1ccc(NC(=O)C2CCCN2C(=O)NC2CCCCC2)c(OC)c1` (stereo not drawn), 12.7%.
The same measure for `O=C(c1ccc(Br)o1)N(Cc1ccccc1)c1ccccn1`: 11.7%.
In the case of `O=C(CN(Cc1ccc(F)cc1)C(=O)CCC(=O)Nc1nccs1)NCc1ccccc1`, the “hERG current change (%, negative = inhibition) at 1uM” value is listed as -7.72%.
The result for `CCC(Sc1nc(C)cc(C)n1)C(=O)Nc1nccs1` (stereo not drawn) reads 14.3%; that for `CCc1noc(C)c1C(=O)N1CCCC(C(=O)c2cc(F)ccc2F)C1` (stereo not drawn), -9.07%; that for `O=C(COc1cc(Cl)c(Cl)cc1Cl)Nc1ccc([N+](=O)[O-])cc1Cl`, 13%.
In the case of `CC/C(=C\C=C\[C@@H]1C=C[C@@H]2CCC[C@H]2[C@@H]1C(=O)c1ccc[nH]1)[C@@H]1O[C@@H]([C@@H](C)C(=O)[O-])CC[C@@H]1C.[Na+]`, the “hERG current change (%, negative = inhibition) at 1uM” value is recorded as 6.55%.
The result for `O=C(c1ccco1)N1CCN(Cc2ccc(Cl)cc2)CC1` reads 7.26%.
With `O=C(NNC(=O)c1ccccc1O)c1ccc(Cl)c(S(=O)(=O)N2CCCCC2)c1`, the “hERG current change (%, negative = inhibition) at 1uM” value was 2%.
With `CN(C)S(=O)(=O)n1cnc([C@@H]2[C@H]3C(=O)OC[C@@H]3C[C@@]23N=CN(Cc2ccccc2)C3=O)c1`, the “hERG current change (%, negative = inhibition) at 1uM” value is 1.09%.
In the case of `COc1ccc(C(=O)NCc2nnc(SCC(=O)N3CCCCC3)o2)cc1OC`, the “hERG current change (%, negative = inhibition) at 1uM” value was found to be 6.85%.
The result for `CC(=O)Nc1ccc(S(=O)(=O)c2ccc([N+](=O)[O-])cc2)cc1` reads -1.5%.
